From article PMC12820563, “FoxP3 forms a head-to-head dimer in vivo and stabilizes its multimerization on adjacent microsatellites”
This is one part of the list.

target: T1, MBP-FoxP1dN (Mus musculus, UniProt P58462 326-579); experiment: PD-seq (MBP pull-down with sequencing); 20 mM Tris-HCl pH 7.5, 100 mM NaCl, 1.5 mM MgCl2, 0.4 uM protein, 0.1 uM dsDNA library, 30 min, room temperature, amylose pull-down; high values mean tight binding; details: protein: recombinant; tags: His6-MBP; chain copies: 2; dsDNA, one strand shown
T1 sequence: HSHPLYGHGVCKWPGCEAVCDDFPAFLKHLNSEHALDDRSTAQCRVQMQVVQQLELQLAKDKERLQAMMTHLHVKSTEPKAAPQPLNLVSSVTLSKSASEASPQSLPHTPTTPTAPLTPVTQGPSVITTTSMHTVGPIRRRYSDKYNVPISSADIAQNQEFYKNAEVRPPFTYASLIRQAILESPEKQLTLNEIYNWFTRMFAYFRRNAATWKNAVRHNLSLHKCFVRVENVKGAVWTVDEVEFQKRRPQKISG
How it was run: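 In Tris pH 7.5 buffer with NaCl and MgCl2, 0.4 µM His6-MBP-tagged mouse FoxP3 or FoxP1 fragment lacking the N-terminus, from E. coli, met 0.1 µM Klenow-filled double-stranded degenerate DNA library for 30 min at room temperature. Three washes on amylose resin followed capture of the complexes, then proteinase K release of DNA, PCR barcoding and Illumina sequencing. Binding is taken as pooled-replicate reads-per-million enrichment of pull-down relative to input.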

Sequence	binding signal
GATGATTGTTCTCCCAGCTGATGAATTGTGGCGATCGAGTAAACAAATTTTCCTAATCTTTCTGTTCAAGCGCCATCTAC	1.03 RPM ratio (pull-down/input)
GATGATTGTTCTCCCAGCTGATGAATTTTACGGGTCGAGTAAACAAATTTTCCTAATCTTTCTGTTCAAGCGCCATCTAC	0.795 RPM ratio (pull-down/input)
GATGATTGTTCTCCCAGCTGATGAATTGAGCGGTTCGAGTAAACAAATTTTCCTAATCTTTCTGTTCAAGCGCCATCTAC	0.846 RPM ratio (pull-down/input)
GATGATTGTTCTCCCAGCTGATGAATTTTCAATATCGAGTAAACAAATTTTCCTAATCTTTCTGTTCAAGCGCCATCTAC	1.06 RPM ratio (pull-down/input)
GATGATTGTTCTCCCAGCTGATGAATTTCGAGAGTCGAGTAAACAAATTTTCCTAATCTTTCTGTTCAAGCGCCATCTAC	0.774 RPM ratio (pull-down/input)
GATGATTGTTCTCCCAGCTGATGAATTAAAGTCTTCGAGTAAACAAATTTTCCTAATCTTTCTGTTCAAGCGCCATCTAC	0.894 RPM ratio (pull-down/input)
GATGATTGTTCTCCCAGCTGATGAATTCCAATGATCGAGTAAACAAATTTTCCTAATCTTTCTGTTCAAGCGCCATCTAC	0.843 RPM ratio (pull-down/input)
GATGATTGTTCTCCCAGCTGATGAATTAGGTTCGTCGAGTAAACAAATTTTCCTAATCTTTCTGTTCAAGCGCCATCTAC	0.902 RPM ratio (pull-down/input)
GATGATTGTTCTCCCAGCTGATGAATTGCAGTGCTCGAGTAAACAAATTTTCCTAATCTTTCTGTTCAAGCGCCATCTAC	1.01 RPM ratio (pull-down/input)
GATGATTGTTCTCCCAGCTGATGAATTTAAGGCCTCGAGTAAACAAATTTTCCTAATCTTTCTGTTCAAGCGCCATCTAC	0.839 RPM ratio (pull-down/input)
GATGATTGTTCTCCCAGCTGATGAATTGCCACATTCGAGTAAACAAATTTTCCTAATCTTTCTGTTCAAGCGCCATCTAC	1.2 RPM ratio (pull-down/input)
GATGATTGTTCTCCCAGCTGATGAATTGCATCAATCGAGTAAACAAATTTTCCTAATCTTTCTGTTCAAGCGCCATCTAC	1.53 RPM ratio (pull-down/input)
GATGATTGTTCTCCCAGCTGATGAATTGTAGCCATCGAGTAAACAAATTTTCCTAATCTTTCTGTTCAAGCGCCATCTAC	1.08 RPM ratio (pull-down/input)
GATGATTGTTCTCCCAGCTGATGAATTCCCGCTATCGAGTAAACAAATTTTCCTAATCTTTCTGTTCAAGCGCCATCTAC	0.815 RPM ratio (pull-down/input)
GATGATTGTTCTCCCAGCTGATGAATTCCAAGTGTCGAGTAAACAAATTTTCCTAATCTTTCTGTTCAAGCGCCATCTAC	0.858 RPM ratio (pull-down/input)
GATGATTGTTCTCCCAGCTGATGAATTCCAATGTTCGAGTAAACAAATTTTCCTAATCTTTCTGTTCAAGCGCCATCTAC	0.877 RPM ratio (pull-down/input)
GATGATTGTTCTCCCAGCTGATGAATTGCCCAGGTCGAGTAAACAAATTTTCCTAATCTTTCTGTTCAAGCGCCATCTAC	0.871 RPM ratio (pull-down/input)
GATGATTGTTCTCCCAGCTGATGAATTATTGGGTTCGAGTAAACAAATTTTCCTAATCTTTCTGTTCAAGCGCCATCTAC	1.06 RPM ratio (pull-down/input)
GATGATTGTTCTCCCAGCTGATGAATTTGGACAATCGAGTAAACAAATTTTCCTAATCTTTCTGTTCAAGCGCCATCTAC	1.17 RPM ratio (pull-down/input)
GATGATTGTTCTCCCAGCTGATGAATTGTGACTATCGAGTAAACAAATTTTCCTAATCTTTCTGTTCAAGCGCCATCTAC	1.18 RPM ratio (pull-down/input)
GATGATTGTTCTCCCAGCTGATGAATTTTGATACTCGAGTAAACAAATTTTCCTAATCTTTCTGTTCAAGCGCCATCTAC	1.06 RPM ratio (pull-down/input)

Sequence	binding signal
GATGATTGTTCTCCCAGCTGATGAATTTCCTTAGTCGAGTAAACAAATTTTCCTAATCTTTCTGTTCAAGCGCCATCTAC	0.788 RPM ratio (pull-down/input)
GATGATTGTTCTCCCAGCTGATGAATTTATCCAGTCGAGTAAACAAATTTTCCTAATCTTTCTGTTCAAGCGCCATCTAC	0.962 RPM ratio (pull-down/input)
GATGATTGTTCTCCCAGCTGATGAATTACTTCAATCGAGTAAACAAATTTTCCTAATCTTTCTGTTCAAGCGCCATCTAC	1.16 RPM ratio (pull-down/input)
GATGATTGTTCTCCCAGCTGATGAATTGTAGTCCTCGAGTAAACAAATTTTCCTAATCTTTCTGTTCAAGCGCCATCTAC	1.02 RPM ratio (pull-down/input)
GATGATTGTTCTCCCAGCTGATGAATTTCCGGCGTCGAGTAAACAAATTTTCCTAATCTTTCTGTTCAAGCGCCATCTAC	0.8 RPM ratio (pull-down/input)
GATGATTGTTCTCCCAGCTGATGAATTGGAGAATTCGAGTAAACAAATTTTCCTAATCTTTCTGTTCAAGCGCCATCTAC	0.907 RPM ratio (pull-down/input)
GATGATTGTTCTCCCAGCTGATGAATTAGCACTATCGAGTAAACAAATTTTCCTAATCTTTCTGTTCAAGCGCCATCTAC	0.988 RPM ratio (pull-down/input)
GATGATTGTTCTCCCAGCTGATGAATTGAGCAACTCGAGTAAACAAATTTTCCTAATCTTTCTGTTCAAGCGCCATCTAC	0.874 RPM ratio (pull-down/input)
GATGATTGTTCTCCCAGCTGATGAATTAGGAACGTCGAGTAAACAAATTTTCCTAATCTTTCTGTTCAAGCGCCATCTAC	0.882 RPM ratio (pull-down/input)
GATGATTGTTCTCCCAGCTGATGAATTAATTAGCTCGAGTAAACAAATTTTCCTAATCTTTCTGTTCAAGCGCCATCTAC	0.904 RPM ratio (pull-down/input)
GATGATTGTTCTCCCAGCTGATGAATTAATCGTATCGAGTAAACAAATTTTCCTAATCTTTCTGTTCAAGCGCCATCTAC	1.04 RPM ratio (pull-down/input)
GATGATTGTTCTCCCAGCTGATGAATTTCATAAATCGAGTAAACAAATTTTCCTAATCTTTCTGTTCAAGCGCCATCTAC	1.05 RPM ratio (pull-down/input)
GATGATTGTTCTCCCAGCTGATGAATTTAGCGGTTCGAGTAAACAAATTTTCCTAATCTTTCTGTTCAAGCGCCATCTAC	0.874 RPM ratio (pull-down/input)
GATGATTGTTCTCCCAGCTGATGAATTGCGTATGTCGAGTAAACAAATTTTCCTAATCTTTCTGTTCAAGCGCCATCTAC	1.2 RPM ratio (pull-down/input)
GATGATTGTTCTCCCAGCTGATGAATTAGGGGAGTCGAGTAAACAAATTTTCCTAATCTTTCTGTTCAAGCGCCATCTAC	0.752 RPM ratio (pull-down/input)
GATGATTGTTCTCCCAGCTGATGAATTACCTTCATCGAGTAAACAAATTTTCCTAATCTTTCTGTTCAAGCGCCATCTAC	1.01 RPM ratio (pull-down/input)
GATGATTGTTCTCCCAGCTGATGAATTGAAGGCATCGAGTAAACAAATTTTCCTAATCTTTCTGTTCAAGCGCCATCTAC	1.03 RPM ratio (pull-down/input)
GATGATTGTTCTCCCAGCTGATGAATTGATCGGGTCGAGTAAACAAATTTTCCTAATCTTTCTGTTCAAGCGCCATCTAC	0.834 RPM ratio (pull-down/input)
GATGATTGTTCTCCCAGCTGATGAATTCTTCGTCTCGAGTAAACAAATTTTCCTAATCTTTCTGTTCAAGCGCCATCTAC	0.829 RPM ratio (pull-down/input)
GATGATTGTTCTCCCAGCTGATGAATTGCATGTGTCGAGTAAACAAATTTTCCTAATCTTTCTGTTCAAGCGCCATCTAC	1.18 RPM ratio (pull-down/input)
GATGATTGTTCTCCCAGCTGATGAATTAATTGCATCGAGTAAACAAATTTTCCTAATCTTTCTGTTCAAGCGCCATCTAC	1.4 RPM ratio (pull-down/input)

Sequence	binding signal
GATGATTGTTCTCCCAGCTGATGAATTCCCGTCATCGAGTAAACAAATTTTCCTAATCTTTCTGTTCAAGCGCCATCTAC	0.881 RPM ratio (pull-down/input)
GATGATTGTTCTCCCAGCTGATGAATTAGTGCATTCGAGTAAACAAATTTTCCTAATCTTTCTGTTCAAGCGCCATCTAC	1.42 RPM ratio (pull-down/input)
GATGATTGTTCTCCCAGCTGATGAATTACCAAATTCGAGTAAACAAATTTTCCTAATCTTTCTGTTCAAGCGCCATCTAC	1.18 RPM ratio (pull-down/input)
GATGATTGTTCTCCCAGCTGATGAATTGTAGTTATCGAGTAAACAAATTTTCCTAATCTTTCTGTTCAAGCGCCATCTAC	1.39 RPM ratio (pull-down/input)
GATGATTGTTCTCCCAGCTGATGAATTATAGTGTTCGAGTAAACAAATTTTCCTAATCTTTCTGTTCAAGCGCCATCTAC	1.2 RPM ratio (pull-down/input)
GATGATTGTTCTCCCAGCTGATGAATTGTAGTTCTCGAGTAAACAAATTTTCCTAATCTTTCTGTTCAAGCGCCATCTAC	0.975 RPM ratio (pull-down/input)
GATGATTGTTCTCCCAGCTGATGAATTACCGTTCTCGAGTAAACAAATTTTCCTAATCTTTCTGTTCAAGCGCCATCTAC	0.958 RPM ratio (pull-down/input)
GATGATTGTTCTCCCAGCTGATGAATTAAGGCCATCGAGTAAACAAATTTTCCTAATCTTTCTGTTCAAGCGCCATCTAC	0.923 RPM ratio (pull-down/input)
GATGATTGTTCTCCCAGCTGATGAATTCGCCAGTTCGAGTAAACAAATTTTCCTAATCTTTCTGTTCAAGCGCCATCTAC	0.807 RPM ratio (pull-down/input)
GATGATTGTTCTCCCAGCTGATGAATTCTGCCCGTCGAGTAAACAAATTTTCCTAATCTTTCTGTTCAAGCGCCATCTAC	0.815 RPM ratio (pull-down/input)
GATGATTGTTCTCCCAGCTGATGAATTGCTGTGTTCGAGTAAACAAATTTTCCTAATCTTTCTGTTCAAGCGCCATCTAC	1.53 RPM ratio (pull-down/input)
GATGATTGTTCTCCCAGCTGATGAATTTCCCTGGTCGAGTAAACAAATTTTCCTAATCTTTCTGTTCAAGCGCCATCTAC	0.791 RPM ratio (pull-down/input)
GATGATTGTTCTCCCAGCTGATGAATTAGCCCAGTCGAGTAAACAAATTTTCCTAATCTTTCTGTTCAAGCGCCATCTAC	0.795 RPM ratio (pull-down/input)
GATGATTGTTCTCCCAGCTGATGAATTTCGGAGGTCGAGTAAACAAATTTTCCTAATCTTTCTGTTCAAGCGCCATCTAC	0.762 RPM ratio (pull-down/input)
GATGATTGTTCTCCCAGCTGATGAATTGAGAGGCTCGAGTAAACAAATTTTCCTAATCTTTCTGTTCAAGCGCCATCTAC	0.884 RPM ratio (pull-down/input)
GATGATTGTTCTCCCAGCTGATGAATTATCCGAGTCGAGTAAACAAATTTTCCTAATCTTTCTGTTCAAGCGCCATCTAC	0.967 RPM ratio (pull-down/input)
GATGATTGTTCTCCCAGCTGATGAATTGGATCCTTCGAGTAAACAAATTTTCCTAATCTTTCTGTTCAAGCGCCATCTAC	0.821 RPM ratio (pull-down/input)
GATGATTGTTCTCCCAGCTGATGAATTCGGCGATTCGAGTAAACAAATTTTCCTAATCTTTCTGTTCAAGCGCCATCTAC	0.834 RPM ratio (pull-down/input)
GATGATTGTTCTCCCAGCTGATGAATTTCTCGATTCGAGTAAACAAATTTTCCTAATCTTTCTGTTCAAGCGCCATCTAC	0.855 RPM ratio (pull-down/input)
GATGATTGTTCTCCCAGCTGATGAATTATTGCCGTCGAGTAAACAAATTTTCCTAATCTTTCTGTTCAAGCGCCATCTAC	1.09 RPM ratio (pull-down/input)
GATGATTGTTCTCCCAGCTGATGAATTAAGCCTATCGAGTAAACAAATTTTCCTAATCTTTCTGTTCAAGCGCCATCTAC	0.873 RPM ratio (pull-down/input)
